Here are results for 31 molecules from PMC9911399, “Two distinct binding modes provide the RNA-binding protein RbFox with extraordinary sequence specificity”.

Changes are numbered by the printed parent chain; changes in the protein carry UniProt numbers. The list shows a part of the results.

Sequences and labels used below:
B1: AGAGAUU (DNA:RNA)
RNA: GGGAGACCGGAAUUCAGAUUGUCCAGAGAUUUUAAAUCCCGUCGUAGCCACCA
DNA 1: CAATCTGAATTCCGGTCTCCC
DNA 2: TGGTGGCTACGACGGGATT
B2: UGUUUUA (DNA:RNA)
RNA: B1 RNA with A25U, A27U, G28U, A29U, U31A
DNA 1: CAATCTGAATTCCGGTCTCCC
DNA 2: TGGTGGCTACGACGGGATT
B3: AACCUGU (DNA:RNA)
RNA: B1 RNA with G26A, A27C, G28C, A29U, U30G
DNA 1: CAATCTGAATTCCGGTCTCCC
DNA 2: TGGTGGCTACGACGGGATT
B4: GACUACA (DNA:RNA)
RNA: B1 RNA with A25G, G26A, A27C, G28U, U30C, U31A
DNA 1: CAATCTGAATTCCGGTCTCCC
DNA 2: TGGTGGCTACGACGGGATT
B5: UUUUAGG (DNA:RNA)
RNA: B1 RNA with A25U, G26U, A27U, G28U, U30G, U31G
DNA 1: CAATCTGAATTCCGGTCTCCC
DNA 2: TGGTGGCTACGACGGGATT
B6: UUUCUUU (DNA:RNA)
RNA: B1 RNA with A25U, G26U, A27U, G28C, A29U
DNA 1: CAATCTGAATTCCGGTCTCCC
DNA 2: TGGTGGCTACGACGGGATT
B7: GUAAUGU (DNA:RNA)
RNA: B1 RNA with A25G, G26U, G28A, A29U, U30G
DNA 1: CAATCTGAATTCCGGTCTCCC
DNA 2: TGGTGGCTACGACGGGATT
B8: UCCCCAG (DNA:RNA)
RNA: GGGAGACCGGAAUUCAGAUUGUCCUCCCCAGUUAAAUCCCGUCGUAGCCACCA
DNA 1: CAATCTGAATTCCGGTCTCCC
DNA 2: TGGTGGCTACGACGGGATT
B9: AACGCGA (DNA:RNA)
RNA: B1 RNA with G26A, A27C, A29C, U30G, U31A
DNA 1: CAATCTGAATTCCGGTCTCCC
DNA 2: TGGTGGCTACGACGGGATT
B10: ACUUUCU (DNA:RNA)
RNA: B1 RNA with G26C, A27U, G28U, A29U, U30C
DNA 1: CAATCTGAATTCCGGTCTCCC
DNA 2: TGGTGGCTACGACGGGATT
B11: ACACCCC (DNA:RNA)
RNA: B8 RNA with U25A, C27A, A30C, G31C
DNA 1: CAATCTGAATTCCGGTCTCCC
DNA 2: TGGTGGCTACGACGGGATT
B12: UUCAGUU (DNA:RNA)
RNA: B1 RNA with A25U, G26U, A27C, G28A, A29G
DNA 1: CAATCTGAATTCCGGTCTCCC
DNA 2: TGGTGGCTACGACGGGATT
B13: CCCUGCU (DNA:RNA)
RNA: B8 RNA with U25C, C28U, C29G, A30C, G31U
DNA 1: CAATCTGAATTCCGGTCTCCC
DNA 2: TGGTGGCTACGACGGGATT
B14: UGCCCUG (DNA:RNA)
RNA: B8 RNA with C26G, A30U
DNA 1: CAATCTGAATTCCGGTCTCCC
DNA 2: TGGTGGCTACGACGGGATT
B15: AGAAUGA (DNA:RNA)
RNA: B1 RNA with G28A, A29U, U30G, U31A
DNA 1: CAATCTGAATTCCGGTCTCCC
DNA 2: TGGTGGCTACGACGGGATT
B16: AGACACA (DNA:RNA)
RNA: B1 RNA with G28C, U30C, U31A
DNA 1: CAATCTGAATTCCGGTCTCCC
DNA 2: TGGTGGCTACGACGGGATT
B17: GGUGGCC (DNA:RNA)
RNA: B1 RNA with A25G, A27U, A29G, U30C, U31C
DNA 1: CAATCTGAATTCCGGTCTCCC
DNA 2: TGGTGGCTACGACGGGATT
B18: GUUCCAU (DNA:RNA)
RNA: B8 RNA with U25G, C26U, C27U, G31U
DNA 1: CAATCTGAATTCCGGTCTCCC
DNA 2: TGGTGGCTACGACGGGATT
B19: AUAGGUG (DNA:RNA)
RNA: B1 RNA with G26U, A29G, U31G
DNA 1: CAATCTGAATTCCGGTCTCCC
DNA 2: TGGTGGCTACGACGGGATT
B20: CACAUCU (DNA:RNA)
RNA: B1 RNA with A25C, G26A, A27C, G28A, A29U, U30C
DNA 1: CAATCTGAATTCCGGTCTCCC
DNA 2: TGGTGGCTACGACGGGATT
B21: AGGGAGG (DNA:RNA)
RNA: B1 RNA with A27G, U30G, U31G
DNA 1: CAATCTGAATTCCGGTCTCCC
DNA 2: TGGTGGCTACGACGGGATT
B22: UCUGUAG (DNA:RNA)
RNA: B8 RNA with C27U, C28G, C29U
DNA 1: CAATCTGAATTCCGGTCTCCC
DNA 2: TGGTGGCTACGACGGGATT
B23: AUCGACA (DNA:RNA)
RNA: B1 RNA with G26U, A27C, U30C, U31A
DNA 1: CAATCTGAATTCCGGTCTCCC
DNA 2: TGGTGGCTACGACGGGATT
B24: CCACGCU (DNA:RNA)
RNA: B1 RNA with A25C, G26C, G28C, A29G, U30C
DNA 1: CAATCTGAATTCCGGTCTCCC
DNA 2: TGGTGGCTACGACGGGATT
B25: AUUUGCG (DNA:RNA)
RNA: B1 RNA with G26U, A27U, G28U, A29G, U30C, U31G
DNA 1: CAATCTGAATTCCGGTCTCCC
DNA 2: TGGTGGCTACGACGGGATT
B26: CCUUUAU (DNA:RNA)
RNA: B8 RNA with U25C, C27U, C28U, C29U, G31U
DNA 1: CAATCTGAATTCCGGTCTCCC
DNA 2: TGGTGGCTACGACGGGATT
B27: ACGCGAG (DNA:RNA)
RNA: B8 RNA with U25A, C27G, C29G
DNA 1: CAATCTGAATTCCGGTCTCCC
DNA 2: TGGTGGCTACGACGGGATT
B28: CGCGUUG (DNA:RNA)
RNA: B1 RNA with A25C, A27C, A29U, U31G
DNA 1: CAATCTGAATTCCGGTCTCCC
DNA 2: TGGTGGCTACGACGGGATT
B29: CGUGGGU (DNA:RNA)
RNA: B1 RNA with A25C, A27U, A29G, U30G
DNA 1: CAATCTGAATTCCGGTCTCCC
DNA 2: TGGTGGCTACGACGGGATT
B30: AAGUUGA (DNA:RNA)
RNA: B1 RNA with G26A, A27G, G28U, A29U, U30G, U31A
DNA 1: CAATCTGAATTCCGGTCTCCC
DNA 2: TGGTGGCTACGACGGGATT
B31: ACUCAAC (DNA:RNA)
RNA: B8 RNA with U25A, C27U, C29A, G31C
DNA 1: CAATCTGAATTCCGGTCTCCC
DNA 2: TGGTGGCTACGACGGGATT

The target in the assay is T1, RBFOX1 RRM (Homo sapiens, UniProt Q9NWB1 109-208).
T1 sequence: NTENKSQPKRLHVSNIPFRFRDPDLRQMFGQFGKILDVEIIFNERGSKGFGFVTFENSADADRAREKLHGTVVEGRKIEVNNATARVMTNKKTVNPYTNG
The experiment in a line: EMSA; HiTS-Eq, 1 nM pool, 10 min; buffer printed only for the single-RNA assays: 10 mM Tris pH 7.5, 150 mM NaCl, 3.4 mM EDTA, 0.001% NP-40, 30 C. Particulars: tags: His6 N-terminal (pET28a); label: 5' 32P. The method, boiled down:
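Purified RbFox RRM (wild type or mutant) was equilibrated for 10 min in 50 µL with 1 nM of a 5′-radiolabelled pool of RNA with 7 randomized nucleotides, its flanks annealed to DNA oligonucleotides, across increasing protein concentrations. Free RNA was separated by 8% native PAGE, excised, reverse-transcribed, PCR-barcoded and sequenced on an Illumina HiSeq 2500. Relative association constants came from read-count changes of each variant against the control reaction, normalised to the cognate motif.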
(In general: A gel shift assay detects complexes by their altered migration in electrophoresis.)
B1: the binding signal is 0.00776 KA relative to UGCAUGU.
In the case of B2, the binding signal was 0.0129 KA relative to UGCAUGU.
For B3, the binding signal was 0.00476 KA relative to UGCAUGU.
Regarding B4, the binding signal was 0.00254 KA relative to UGCAUGU.
For B5 the value was 0.00544 KA relative to UGCAUGU; for B6, 0.0113 KA relative to UGCAUGU.
On to B7, for which the binding signal was 0.0122 KA relative to UGCAUGU.
Consider B8, for which the binding signal is 0.00017 KA relative to UGCAUGU.
In the case of B9, the binding signal is 0.00453 KA relative to UGCAUGU.
In the case of B10, the binding signal was 0.00754 KA relative to UGCAUGU.
As for B11, the binding signal was 0.00028 KA relative to UGCAUGU.
Take B12: the binding signal is 0.0101 KA relative to UGCAUGU.
For B13 the value was 0.00518 KA relative to UGCAUGU; for B14, 0.025 KA relative to UGCAUGU; for B15, 0.0113 KA relative to UGCAUGU.
As to B16, the binding signal is 0.00246 KA relative to UGCAUGU.
For B17 the value was 0.0122 KA relative to UGCAUGU; for B18, 0.00792 KA relative to UGCAUGU; for B19, 0.0137 KA relative to UGCAUGU.
B20: the binding signal was 0.000528 KA relative to UGCAUGU.
Consider B21, for which the binding signal is 0.0245 KA relative to UGCAUGU.
Turning to B22, the binding signal is 0.0145 KA relative to UGCAUGU.
For the molecule B23, the binding signal was 0.00164 KA relative to UGCAUGU.
For B24 the value was 0.00361 KA relative to UGCAUGU; for B25, 0.0185 KA relative to UGCAUGU.
On to B26, for which the binding signal was 0.00554 KA relative to UGCAUGU.
For B27, the binding signal was 0.0108 KA relative to UGCAUGU.
Regarding B28, the binding signal was 0.0136 KA relative to UGCAUGU.
As for B29, the binding signal is 0.0119 KA relative to UGCAUGU.
With B30, the binding signal was 0.015 KA relative to UGCAUGU.
On to B31, for which the binding signal was 0.00166 KA relative to UGCAUGU.
